# The whole screen tested about 310,000 compounds, of which about 2,200 (0.71%) showed an effect of 50% or more. Effects have a minus sign here. The list shows a part of the results.
# Biological target: human ether-à-go-go-related gene (hERG) potassium channel (human, UniProt Q12809)
# Assay: primary screen, population patch clamp on CHO cells stably expressing hERG
# human ether-à-go-go-related gene (hERG) potassium channel, sequence (Q12809 whole entry, looked up): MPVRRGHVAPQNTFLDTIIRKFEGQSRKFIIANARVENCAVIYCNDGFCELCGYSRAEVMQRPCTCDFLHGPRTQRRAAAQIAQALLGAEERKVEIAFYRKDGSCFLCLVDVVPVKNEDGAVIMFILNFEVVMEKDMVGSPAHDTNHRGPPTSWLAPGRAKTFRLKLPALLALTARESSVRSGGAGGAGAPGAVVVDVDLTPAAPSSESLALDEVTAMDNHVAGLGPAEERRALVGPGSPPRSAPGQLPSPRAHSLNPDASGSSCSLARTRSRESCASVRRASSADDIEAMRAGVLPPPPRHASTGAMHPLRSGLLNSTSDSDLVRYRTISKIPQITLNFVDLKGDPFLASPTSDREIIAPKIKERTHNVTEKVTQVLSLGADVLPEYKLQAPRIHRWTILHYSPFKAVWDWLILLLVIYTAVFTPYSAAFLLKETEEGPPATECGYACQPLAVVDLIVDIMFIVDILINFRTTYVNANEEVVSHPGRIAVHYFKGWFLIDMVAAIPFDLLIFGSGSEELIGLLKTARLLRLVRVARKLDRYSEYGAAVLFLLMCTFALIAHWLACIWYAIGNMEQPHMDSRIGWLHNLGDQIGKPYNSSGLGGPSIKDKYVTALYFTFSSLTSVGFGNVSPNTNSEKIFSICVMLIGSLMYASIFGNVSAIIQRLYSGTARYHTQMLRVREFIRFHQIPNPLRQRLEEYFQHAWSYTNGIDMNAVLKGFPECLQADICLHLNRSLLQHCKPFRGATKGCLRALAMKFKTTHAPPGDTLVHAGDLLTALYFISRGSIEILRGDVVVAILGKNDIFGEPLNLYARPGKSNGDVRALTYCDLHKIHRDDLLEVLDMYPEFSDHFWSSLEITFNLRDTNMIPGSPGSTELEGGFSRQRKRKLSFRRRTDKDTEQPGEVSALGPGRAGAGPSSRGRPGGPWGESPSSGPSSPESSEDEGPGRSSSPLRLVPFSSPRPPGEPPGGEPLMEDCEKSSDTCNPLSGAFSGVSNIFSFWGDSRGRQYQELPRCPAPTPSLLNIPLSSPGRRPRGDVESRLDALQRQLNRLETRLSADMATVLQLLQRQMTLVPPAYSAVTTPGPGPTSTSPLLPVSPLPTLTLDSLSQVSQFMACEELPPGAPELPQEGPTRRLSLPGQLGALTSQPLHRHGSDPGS
row,Compound,"hERG current change (%, negative = inhibition) at 1uM"
1,COc1ccc(CC(O)COS(N)(=O)=O)cc1 (centres unmarked),8.1%
2,COC(=O)c1sc(C(C)(C)C)cc1CSc1ccccc1,1.18%
3,CCCn1c(=O)c2c(c3ccccc31)OC(C)C(=O)N2 (centres unmarked),1.1%
4,CCCCC1(C)OC(=O)C(=Cc2c[nH]c3ccccc23)C(=O)O1 (centres unmarked),17.3%
5,Cc1nnc2nc(-c3ccccc3)nc(-c3ccccc3)n12,15.4%
6,Cc1c(NC(=O)c2csc3c2CCCC3)c(=O)n(-c2ccccc2)n1C,18%
7,COP(=O)(/C=C/c1ccccc1)C(O)c1ccc(F)cc1 (centres unmarked),9.55%
8,C=CCn1c(CNC(=O)c2ccccc2C)nnc1SCC(=O)NC1CCCC1,12.1%
9,CCOC(=O)CCc1c(C)c2ccc3c(c2oc1=O)CN(CCCO)CO3,16.7%
10,CCOC(=O)CCP(=O)(O)C(O)c1ccc(OC)cc1 (centres unmarked),6.31%
11,CCOC(=O)N1CCN(S(=O)(=O)c2ccc(C)cc2)CC1,16.1%
12,O=C(O)c1ccccc1C(=O)NC1CCN(c2nccc(C(F)(F)F)n2)CC1,14.3%
13,CCOC(=O)N1CCN(C(=O)Cn2ccc3c(OC)cccc3c2=O)CC1,8.79%
14,c1ccc(CSc2nnc(NC3=NCCCCC3)s2)cc1,2.53%
15,Cc1ccc(C(=O)O)cc1N1C(=O)c2cccc3c([N+](=O)[O-])ccc(c23)C1=O,15.9%
16,CN(C1CCS(=O)(=O)C1)S(=O)(=O)c1cccc2nsnc12 (centres unmarked),-7.83%
17,CCOC(=O)c1cc2c(ccn2C)n1CC(=O)N(CC)CC,13.9%
18,Cl.N#C/C(=C\c1ccccc1)C(=O)NCCN1CCOCC1,15.3%
19,CCn1nnc(-c2ccc(N)cc2)n1,13%
20,CCOc1cccc(-c2nnc3sc(COc4ccc(Cl)cc4)nn23)c1,9.26%
21,COc1cc(C(=O)NC(C)c2ccc(S(N)(=O)=O)cc2)ccc1OCC(=O)N1CCOCC1 (centres unmarked),13%
22,CS(=O)(=O)N(CC(=O)NCc1ccccc1Cl)C1CCCCC1,10.4%
23,CC(C)n1c(N2CCN(S(=O)(=O)c3cccc([N+](=O)[O-])c3)CC2)nc2ccccc21,-21.3%

row,Compound,"hERG current change (%, negative = inhibition) at 1uM"
1,O=C(O)/C=C/C(=O)Nc1ccc(Oc2ccc(NC(=O)/C=C/C(=O)O)cc2)cc1,13.4%
2,COCCN(C(=O)CSc1nc2nc(C)cc(C)n2n1)c1c(N)n(Cc2ccccc2)c(=O)[nH]c1=O,20.9%
3,CC(C)OP(=O)(OC(C)C)C(Nc1ccc(C(=O)O)cc1)c1ccccc1 (centres unmarked),10.6%
4,O=C1C(Cc2c[nH]c3ccccc23)NC(=S)N1C1CCCCC1 (centres unmarked),10.7%
5,COc1ccc(C(=O)C[n+]2ccc3c(c2)nc(-c2ccc(OC)cc2OC)n3C)cc1.[Br-],4.76%
6,CCOC(=O)C1CCN(S(=O)(=O)c2c(C)[nH]c(=O)[nH]c2=O)CC1,1.35%
7,COc1cc(C(C)=O)ccc1COc1ccc(C(=O)O)cc1OC,3.24%
8,COc1ccc(NC(=O)c2ccc(Br)c(S(=O)(=O)N3CCOCC3)c2)cc1,10.6%
9,COCCN(C(=O)COC(=O)CCCOc1ccccc1)c1c(N)n(Cc2ccccc2)c(=O)[nH]c1=O,7.67%
10,CCCCCn1c(=S)[nH]c2cc(C(=O)N3CCCC3)ccc2c1=O,6.03%
11,Cc1cccc2cc(CN(C(=O)c3cccs3)c3ccccc3)c(=O)[nH]c12,14.5%
12,O=C(NCc1ccc2c(c1)OCO2)Oc1ccccc1,-0.322%
13,COc1ccc(Cl)cc1C(=O)NNC1CC(=O)N(Cc2ccc(Cl)cc2)C1=O (centres unmarked),-5.98%
14,O=C(COC(=O)CCC1CCCC1)Nc1ccc(Cl)cn1,13.6%
15,OCCC1CN(Cc2cc3c(cc2Cl)OCO3)CCN1Cc1ccccc1 (centres unmarked),-1.48%
16,COc1ccc(-c2csc(NC(=O)CSCC(=O)Nc3cc(C)on3)n2)cc1,10.1%
17,O=C(OC(C(=O)Nc1cc(Cl)cc(Cl)c1)c1ccccc1)C1=COCCO1 (centres unmarked),10.2%
18,CN(C)c1ccc(/C=C2\N=C(C(C)(C)C)OC2=O)cc1,18.7%
19,O=C(CCCNC(=O)/C(=C/c1ccc(F)cc1)NC(=O)c1ccccc1)OCc1ccccc1,-38.3%
20,O=C1/C(=C/c2cccs2)CCC/C1=C\c1cccs1.O=S(=O)(O)O,10.2%
21,O=C(NC(=S)NCc1ccccc1)c1cccc([N+](=O)[O-])c1,-6.34%
22,O=C(N/N=C/c1cccs1)c1cc(C2CC2)nc2ccccc12,6.16%
23,O=C(NC1CCCCCC1)c1ccc(CS(=O)Cc2ccccc2Cl)o1 (centres unmarked),11.9%

row,Compound,"hERG current change (%, negative = inhibition) at 1uM"
1,CC(C)n1nc(C(=O)Nc2cccc(S(=O)(=O)N3CCCCC3)c2)c2ccccc2c1=O,7.59%
2,CCOc1ccc(N=C2NC(=O)C(CC(=O)Nc3ccccc3)S2)cc1 (centres unmarked),8.01%
3,CCOC(=O)CSc1nc2cc(C(=O)OC)ccc2c(=O)n1CCN1CCOCC1,-11.4%
4,COc1cccc(NC(=O)C(=O)NCCCn2ccnc2)c1,10.3%
5,COc1ccc(NC(=O)c2ccccc2NC(=O)c2ccccc2)cc1,13.7%
6,COC(=O)Cn1c(CN2CCC(Cc3ccccc3)CC2)nc2c1c(=O)n(C)c(=O)n2C,6.77%
7,CCN(CC)C(=O)C1CCCN(c2ccccc2[N+](=O)[O-])C1 (centres unmarked),-0.0822%
8,C=CCN(c1ccccc1)S(=O)(=O)c1cccc(C(=O)O)c1,12.2%
9,CC(C)C(=O)Nc1ccc([N+](=O)[O-])c(C(F)(F)F)c1,1.83%
10,Cc1csc(SCC(=O)O)n1,9.44%
11,CC(C)CN(C(=O)COC(=O)c1ccccc1Sc1ccccc1C#N)C1CCS(=O)(=O)C1 (centres unmarked),18.1%
12,COc1ccc(N2CCN(C(=O)c3ccc(-c4nc5ccccc5s4)o3)CC2)cc1,-0.0373%
13,COc1ccc2[nH]cc(CCN)c2c1,15.1%
14,O=C(c1ccccc1)N1CCN(C2C3CC4CC(C3)CC2C4)CC1 (centres unmarked),6.35%
15,Cn1c(N)c(C(=O)COC(=O)CCc2nc3ccccc3s2)c(=O)n(C)c1=O,19.5%
16,Cc1c(C(=O)Nc2ccccc2F)sc2ncn(CC(=O)N3CCCCC3)c(=O)c12,25.2%
17,C=CCN(CC(O)c1cccc([N+](=O)[O-])c1)C(C)CCc1ccccc1.Cl (centres unmarked),-9.83%
18,N#Cc1cc2c(nc1SC1CCCCC1O)CCCC2 (centres unmarked),1.44%
19,CCc1n[nH]c(=S)n1/N=C/c1ccc(NC(C)=O)cc1,7.25%
20,O=C1CNC(=S)N1Cc1ccccc1Cl,1.25%
21,CS(=O)(=O)N(CC(=O)N1CCN(Cc2ccc3c(c2)OCO3)CC1)Cc1ccc(Cl)cc1,-4.49%
22,Cn1c(=O)c([N+](=O)[O-])c(NCc2ccc3c(c2)OCO3)c2ccccc21,4.69%
23,Cc1c(C(=O)NNC(=O)c2ccncc2)oc2ccc(Br)cc12,-31%

row,Compound,"hERG current change (%, negative = inhibition) at 1uM"
1,Nc1ncnc(Nc2cccc(Cl)c2Cl)n1,12.2%
2,COc1ccnc2c1c(=O)n(Cc1ccccc1Cl)c(=O)n2C,12.8%
3,CCOC(=O)C1=C(C)NC(=O)NC1c1ccc(F)cc1 (centres unmarked),13.3%
4,COc1cccc(NC(=O)c2ccccc2-c2ccccc2C(=O)O)c1,15%
5,Cc1cnc(NC(=O)c2ccc(-c3ccc([N+](=O)[O-])cc3)o2)s1,16.4%
6,O=C1NC(=O)C(CC(=O)N(Cc2ccco2)C2(C(=O)NC3CCCC3)CCCCC2)N1 (centres unmarked),13.8%
7,CCCCC(=O)NC(c1ccc([N+](=O)[O-])cc1)c1c(O)ccc2ccccc12 (centres unmarked),4.2%
8,COC(=O)COc1ccc(-c2nccc(-c3ccccn3)n2)cc1,9.24%
9,CCNC(=O)CC1SC(=Nc2ccc(C)c([N+](=O)[O-])c2)N(C)C1=O (centres unmarked),7.26%
10,Cc1nnc(SCc2ccc(F)cc2Cl)s1,-1.78%
11,Cl.N=c1ccn2c(n1)O[C@H]1[C@@H](CO)[C@H](O)O[C@H]12,10.1%
12,Cc1ccccc1NC(=O)C(NS(=O)(=O)c1ccc2c(c1)c(=O)n(C)c(=O)n2C)c1ccccc1 (centres unmarked),11.4%
13,O=C(Cn1cccc1C(=O)c1ccccc1)NCCN1CCCCCC1,-8.68%
14,O=C(COc1ccccc1F)N/N=C1\CCCc2ccccc21,15%
15,Cc1ccc(C(=O)N2CCN(S(=O)(=O)N3CCCCC3)CC2)cc1,11.8%
16,O=C(c1ccncc1)c1ccc(NS(=O)(=O)c2ccc(Br)s2)cc1,1.6%
17,Cc1ccc(S(=O)(=O)N2CCN(c3nc(CN4CCCC4)nc4sc(C)c(C)c34)CC2)cc1,-48.8%
18,O=C(O)c1ccccc1NCc1cccs1,12.4%
19,CCCCc1nnc(NC(=O)c2ccc3c(=O)n4c(nc3c2)CCC4)s1,9.85%
20,Cn1cccc1C(=O)NC(=O)COC(=O)CC12CC3CC(CC(Br)(C3)C1)C2,7.61%

# From paper PMC4336329 (PLoS ONE, 2015)
